Results as given in the supplement of paper PMC10126150.
Sequences with one replicate were seen in a single cluster, so their values are uncertain.

System: ATP
Assay: switch fluorescence ratio, 500 uM ATP over buffer (Cy3 cluster intensity, sum of 5 cycles each) (fold (ratio)); higher = stronger signal-on switching upon ATP binding; sequences stand for … in TCGTCGGCAGCGTCAGATGTGTATAAGAGACAGTTTTTTTTTTTTTTTTTTTTTTTTT…TC
Conditions: aptamer strand: ATP DNA aptamer (quencher-CACCTGGGGGAGTATTGCGGAGGAAGG + anchor), 100 nM annealed; ATP concentration: 500 uM; one replicate
Outline: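 The quencher-labelled ATP aptamer, at 100 nM, was annealed to Cy3-labelled switching-strand clusters on a modified Illumina MiSeq flow-cell. The clusters were imaged in selection buffer, then after 15 min with 500 uM ATP at 22 °C, and this buffer/ATP cycle ran five times with NaOH stripping and re-annealing between runs. Per-cluster fluorescence ratios, summed target-cycle over summed buffer-cycle Cy3 intensity, were averaged per switch-domain sequence. Clusters outside 100-1000 RFU were excluded.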
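Note: ATP exposure 15 min at 22 °C before imaging.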

Sequence	switch fluorescence ratio
AAAAAATCTA	0.998
AAAAACAGCA	1.01
AAAAACGATG	1.03
AAAAACGTTC	1.04
AAAAAGATCG	0.925
AAAAAGGAT	0.986
AAAAAGGCTT	1.06
AAAAAGGTCA	1.04
AAAAAGTGTG	0.994
AAAAATCATT	1.01
AAAAATGAAA	1
AAAAATGCCT	1.13
AAAACACCCC	1.22
AAAACACCGG	0.992
AAAACAGGA	1
AAAACCACTC	1.24
AAAACCCGAG	0.959
AAAACTACAG	1.09
AAAACTAGG	0.995
AAAAGACGGA	1.01
AAAAGAGGCC	1.02
AAAAGATCGG	1.02
AAAAGCGAAT	0.981
AAAAGCGTT	1
AAAAGCTAGC	1.03
AAAAGGAATT	1.02

Sequence	switch fluorescence ratio
AAAAGGCCG	0.995
AAAAGGGTGC	1.08
AAAAGTGTGC	1.12
AAAATAAAC	1.03
AAAATAATAC	0.999
AAAATACCG	1.09
AAAATAGTAC	1.04
AAAATCCGA	0.989
AAAATCGGC	1.88
AAAATCGGTA	1.01
AAAATGACGC	1.07
AAAATGGAA	0.954
AAAATGGCAA	1.13
AAAATGGTCT	1.01
AAAATTCAGA	0.948
AAAATTCTTG	0.976
AAAATTGATA	0.985
AAAATTTACC	1.01
AAACAAAGG	0.977
AAACACCAGC	1.26
AAACACCTGA	1.17
AAACAGAAAC	0.999
AAACAGGTCC	1.05
AAACAGTACC	1.34
AAACATATTG	1.14
AAACATCAAG	1.03

Sequence	switch fluorescence ratio
AAACATCGAT	0.986
AAACATCTGG	0.98
AAACCACGAT	1.05
AAACCATTT	0.953
AAACCCAGTT	1
AAACCCTCAT	1.03
AAACCGAGGT	0.968
AAACCGATAC	2.78
AAACCGGCCC	2
AAACCTTAGT	1.02
AAACCTTTG	1.38
AAACGACTAT	1.01
AAACGCAGAT	2.42
AAACGCTGAG	1.04
AAACGGAGAG	1.01
AAACGGCCGT	0.99
AAACGGCGGG	0.971
AAACGGGCGA	0.983
AAACGGTCGG	0.989
AAACGTGAAA	1.01
AAACGTTTTC	0.992
AAACTGCTTA	1.03
AAACTGGTAA	1.04
AAACTTACTA	1.1
AAACTTAGTT	0.989
AAAGAACTCG	1.04

Sequence	switch fluorescence ratio
AAAGAATGCT	1.11
AAAGAGTACA	1.03
AAAGAGTTAG	0.956
AAAGATCCTC	0.996
AAAGATGCC	0.903
AAAGCACACC	1.32
AAAGCCCTGT	0.982
AAAGCCGGTC	1.2
AAAGCGTCGT	0.975
AAAGCGTGTA	1.04
AAAGCGTTGG	0.971
AAAGCTCGTT	1.08
AAAGGAACGA	0.954
AAAGGAAGCA	1.02
AAAGGAATCG	1.02
AAAGGAGCTA	1.07
AAAGGATATA	1
AAAGGATGAA	0.996
AAAGGCAATT	1.07
AAAGGCCTT	0.988
AAAGGGGTTC	0.933
AAAGGGTTAA	0.999
AAAGGTAGAT	1.04
AAAGGTTCGG	0.97
AAAGTAAACA	0.977
AAAGTAGAGA	0.999

Sequence	switch fluorescence ratio
AAAGTAGCGA	0.998
AAAGTAGGCC	0.967
AAAGTAGGTG	0.975
AAAGTATACC	1.06
AAAGTCCGGC	1.04
AAAGTGACCC	1.26
AAAGTGCGCC	0.989
AAAGTGGCCT	1.07
AAAGTTGAA	0.99
AAAGTTGCGT	0.971
AAAGTTGGCC	1.11
AAAGTTGTAG	0.974
AAATAAGACC	1.01
AAATACATGG	0.986
AAATACGGAT	0.974
AAATAGATTT	0.983
AAATAGCGGG	1.01
AAATAGGCTT	0.954
AAATATACAG	1
AAATATATCA	1.03
AAATATCGG	0.985
AAATATTCAG	0.999
AAATCAATAG	1.08
AAATCATCC	1.11
AAATCCTATC	1.04
AAATCGAGGG	1.06

Sequence	switch fluorescence ratio
AAATCGATAC	1.28
AAATCGCTTG	0.994
AAATCTATGG	1
AAATCTGCGC	1.05
AAATCTTAG	1.04
AAATGACTGT	0.93
AAATGACTTG	0.949
AAATGATCTT	1
AAATGCATTA	1.01
AAATGGCACA	1
AAATGGCGCA	1.01
AAATGGGCAT	1.02
AAATGGGCCT	1.11
AAATGGGGCG	0.993
AAATGTCAGT	0.974
AAATGTGAGC	0.94
AAATTAGCAT	1.03
AAATTCCAAA	1.01
AAATTCGAA	1.05
AAATTCGTAA	1.06
AAATTCTATT	0.968
AAATTGCCAT	1.02
AAATTGGATG	0.972
AAATTTATCT	0.969
AAATTTTTCC	1.08
AACAACATGC	1.06

Sequence	switch fluorescence ratio
AACAACCGAC	1.83
AACAAGATAT	1
AACAATATGT	1
AACAATCATG	1.03
AACACATTAA	1.03
AACACTATGC	1.07
AACACTGG	1.05
AACAGAAAGC	1.06
AACAGACTGT	0.929
AACAGCAAAT	1.04
AACAGCCTGT	1
AACAGCGAAT	1.02
AACAGGCCGT	1
AACAGGGC	0.989
AACAGTGGAG	1.01
AACATACAAG	1.24
AACATAGTAT	1.02
AACATATTTT	1.03
AACATCACG	1.15
AACATCTTGG	1.01
AACATGAACA	0.99
AACATGCGTC	1.05
AACATGTAGT	0.966
AACATTCAAG	1.04
AACATTCTGC	1.01
AACATTTCGC	1.01

Sequence	switch fluorescence ratio
AACATTTCGG	1.03
AACCAAGAGA	0.989
AACCAGATCG	1.02
AACCAGGCGC	1.1
AACCAGTCGC	1.06
AACCATGTGC	0.987
AACCCATAAC	1.04
AACCCCACGC	1.5
AACCCCGTGG	1.04
AACCCGCGCG	1.05
AACCCGTGAC	1.22
AACCCTGCTA	1
AACCGATTTT	0.995
AACCGCACGT	1.62
AACCGCTCGG	0.971
AACCGGCTCA	1.04
AACCGTATCG	0.904
AACCGTCGGC	1.03
AACCGTGATT	1.03
